Source: PubChem BioAssay AID686971 (National Center for Advancing Translational Sciences (NCATS), 2013)
About 7,500 (2.1%) of roughly 360,000 compounds were called active. The shares of active, inactive and inconclusive entries below differ from those in the screen. Calls come from the whole dose curve; as a rule, active = well fitted cell-killing curve with a large enough effect; inconclusive = small, poorly fitted or top-dose-only effect, or effect the other way, or another doubt; inactive = no such curve, though single readings can be large or run the other way. Potencies of inconclusive entries are left out as doubtful fits.

experiment: qHTS for induction of synthetic lethality in tumor cells producing 2HG: qHTS for the HT-1080-IDH1KD cell line; conditions: HT-1080 IDH1 knockdown viability, ATP luminescence, 48 h; activity, negative = toxicity: at 46.1 µM (top of the series) unless noted;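 for activity, negative = toxicity: 0% = DMSO wells and -100% = cell-free medium wells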
Method in brief: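 CellTiter-Glo luminescence after 48 h compound exposure at 37 degrees C of IDH1-knockdown HT-1080 cells in 5% FBS RPMI. %Activity scaled between DMSO wells and cell-free media wells, with curves fitted and assigned curve classes.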
Potency is the fitted concentration of half-maximal effect; tags give direction and shape of the fitted curve.

Row | Compound | Potency | activity, negative = toxicity
1 | O=C(Nc1ccc2c(c1)OCCO2)C(c1ccc(C(F)(F)F)cc1)n1c(=O)c(-c2cc3ccccc3[nH]2)nc2ccccc21 (stereo not drawn) | active: 16.4 µM | –
2 | C=CCNC(=O)c1onc(CSc2cccc(OCC)c2)c1C(=O)O | inconclusive [cytotoxic, single point] | –
3 | Cc1nc2ncccn2c1-c1csc(Nc2ccc(O)cc2)n1 | – | inconclusive: -9.7% [cytotoxic]
4 | S=C(Nc1ccccc1)Nc1cccc(Cl)c1Cl | – | inactive: 1.89%
5 | CN(C)CCNC(=O)c1cccc(-c2cnc3c(NC=O)cc(-c4ccc(F)cc4)cn23)c1 | active: 23.1 µM | –
6 | Nc1nc(Cl)nc2c1ncn2[C@H]1C[C@H](O)[C@@H](CO)O1 | inconclusive [cytotoxic, full curve, poor fit] | –
7 | CC1CCCCC1n1c(=S)[nH]c2ccccc2c1=O (stereo not drawn) | active: 11.2 µM | –
8 | COc1ccc(C(=O)C2CCCN(C3Cc4ccccc4C3)C2)c(OC)c1 (stereo not drawn) | inconclusive [cytotoxic, partial curve] | –
9 | COc1ccc(N2CCN(C(=O)c3nn(C)c4c3CS(=O)(=O)c3ccccc3-4)CC2)cc1 | – | inactive: 23.1%
10 | CCOc1ccc(OCCC(=O)N2CCc3cc(OC)c(OC)cc3C2)cc1 | – | inactive: 3.37%
11 | Cc1ccc(-n2nc3ccc(NC(=O)/C=C/c4ccco4)cc3n2)cc1C | inconclusive [cytotoxic, single point] | –
12 | CC1(NC(=S)NCCO)CCS(=O)(=O)C1 (stereo not drawn) | inconclusive [rising, partial curve, poor fit] | –
13 | Cc1snc(SCC(=O)c2ccc([N+](=O)[O-])cc2)c1C#N | – | inconclusive: -34% [cytotoxic]
14 | CC(C)(C)C1CCc2c(sc(N)c2C(N)=O)C1 (stereo not drawn) | – | inactive: 0.795%
15 | Nc1c(C2CCCCC2)c(=O)on1C(=O)c1ccccc1 | – | inactive: 12.8%
16 | CCN(CC)CCN1C(=O)Cn2c(C)c(C)c3cccc1c32 | inconclusive [cytotoxic, single point] | –
17 | COCc1nnc(NC(=O)c2ccc(S(=O)(=O)N(CC(C)C)CC(C)C)cc2)o1 | inconclusive [cytotoxic, single point] | –
18 | CCOc1ccc(N)c(SSc2cc(OCC)ccc2N)c1 | inconclusive [cytotoxic, single point] | –
19 | CCC(=O)N1CCC1(C)C(=O)NCc1ccc(SC)cc1 (stereo not drawn) | inconclusive [rising, single point] | –
20 | COc1ccc(C(C(=O)NC2CCCC2)N(C(=O)c2snc(-c3ccc(F)cc3)c2N)c2ccc(F)cc2)cc1 (stereo not drawn) | inconclusive [cytotoxic, single point] | –
21 | O=C(Nc1cccnc1)c1ccc(C(=O)Nc2cccnc2)cc1 | inconclusive [cytotoxic, single point] | –
22 | COc1ccc(C(=O)CC(Nc2ccc([N+](=O)[O-])cc2)c2ccc(OC)cc2)cc1 (stereo not drawn) | inconclusive [cytotoxic, single point] | –
23 | CCC(C)(C)NC(=O)C(c1ccc(C)o1)N(Cc1ccc2c(c1)OCO2)C(=O)c1snc(C(N)=O)c1N (stereo not drawn) | inconclusive [rising, single point] | –
24 | COc1cc(C(=O)NC2CCN(Cc3ccccc3)CC2)cc(Cl)c1OC | – | inactive: -12.3%

Row | Compound | Potency | activity, negative = toxicity
25 | S=C(NCc1ccco1)Nc1ccccn1 | – | inactive: -2.33%
26 | CCc1nnc(NC(=O)c2cc(-c3ccccc3)nn2-c2ccccc2)s1 | inconclusive [cytotoxic, single point] | –
27 | Cc1ccc(C(C)C)c(OCC(=O)NC2CCN(C)CC2)c1 | – | inactive: -4.23%
28 | Cc1ccccc1NC(=O)c1cccc(NC(=O)c2c(C(=O)O)cccc2[N+](=O)[O-])c1 | – | inactive: 21%
29 | CCOc1cc(C2NC(=O)N(C)C(C)=C2C(=O)OC)cc(Br)c1O (stereo not drawn) | – | inactive: -1.21%
30 | COC(=O)c1ccc(NC(=O)c2cc(-c3ccncc3)nc3ccccc23)cc1 | inconclusive [cytotoxic, single point] | –
31 | Cc1ccc([N+](=O)[O-])cc1-c1ccc(/C=C(\C#N)c2[nH]nc(N)c2C#N)o1 | active: 16.4 µM | –
32 | CC(=O)Nc1ccc(NC(=O)CCn2nnc3ccccc32)cc1 | – | inactive: 11.2%
33 | O=C(Nc1ccc(-c2nc3ccccc3[nH]2)cc1)C1CCCO1 (stereo not drawn) | active: 11.2 µM | –
34 | O=C1NC(=S)N/C1=C\c1ccc(Oc2ccc(C(F)(F)F)cc2[N+](=O)[O-])c(Cl)c1 | – | inactive: 9.61%
35 | Cc1ccccc1C(=O)N1CCc2cc(-c3csc(NC(=O)CN4CCCC4)n3)ccc21 | inconclusive [cytotoxic, single point] | –
36 | C/C(=N\NC(=O)c1ccc(O)cc1)c1ccc2c(c1)Nc1ccccc1S2 | active: 8.2 µM | –
37 | CCN(CC)C(=O)Cn1c(=O)n(-c2ccc(CC(=O)NCc3ccccc3)cc2)c(=O)c2sccc21 | – | inactive: 7.13%
38 | Cc1ccc(Cl)cc1OCC(=O)NCCOC(=O)Nc1sc(=S)n(C)c1C | – | inactive: 0.143%
39 | COc1ccc(N2CC(C(=O)N/N=C/c3ccc(C)cc3)CC2=O)cc1 (stereo not drawn) | active: 2.31 µM | –
40 | Cc1ccc(-n2c3nc(=O)[nH]c(=O)c-3cc3cc([N+](=O)[O-])ccc32)cc1C | inconclusive [cytotoxic, full curve, poor fit] | –
41 | COc1ccc(Nc2nc3c([nH]2)c(=O)[nH]c(=O)n3C)cc1 | – | inactive: -25.4%
42 | Cc1nc([N+](=O)[O-])c(Br)n1CC(=O)c1cccc([N+](=O)[O-])c1 | inconclusive [cytotoxic, single point] | –
43 | COCCCNc1ncnc2c1sc1nc(-c3ccco3)c3c(c12)CC(C)(C)OC3 | inconclusive [cytotoxic, partial curve] | –
44 | COc1cccc(-c2cc(NC=O)c3ncc(-c4ccc(OC)c(OC)c4)n3c2)c1 | active: 6.51 µM | –
45 | FC(F)(F)c1cccc(-c2cc3nc(NCCOc4ccccc4)ccn3n2)c1 | inconclusive [cytotoxic, single point] | –
46 | CCCCCc1ccc(S(=O)(=O)Nc2cc(C)ccn2)cc1 | – | inactive: 2.42%
47 | COc1ccc([C@H]2CC(=O)C[C@@H](CCn3cc(C)nn3)O2)cc1 | – | inactive: 14.6%
48 | Nn1cnnc1N/N=C/c1cccc(Cl)c1Cl | active: 18.4 µM | –
